From article PMC6919601, “Identification of Plasmodium dipeptidyl aminopeptidase allosteric inhibitors by high throughput screening” (PLoS ONE, 2019)
The whole screen tested about 110,000 compounds, of which about 230 (0.21%) showed an effect of 50% or more. The list shows a part of the results.

The molecules below were run against DPAP1 (Plasmodium falciparum, UniProt Q8IIJ9) (assay: primary screen, percent inhibition; read by cleavage of a fluorogenic dipeptide substrate; higher = more effect of the substance).
DPAP1, sequence (Q8IIJ9 whole entry, looked up): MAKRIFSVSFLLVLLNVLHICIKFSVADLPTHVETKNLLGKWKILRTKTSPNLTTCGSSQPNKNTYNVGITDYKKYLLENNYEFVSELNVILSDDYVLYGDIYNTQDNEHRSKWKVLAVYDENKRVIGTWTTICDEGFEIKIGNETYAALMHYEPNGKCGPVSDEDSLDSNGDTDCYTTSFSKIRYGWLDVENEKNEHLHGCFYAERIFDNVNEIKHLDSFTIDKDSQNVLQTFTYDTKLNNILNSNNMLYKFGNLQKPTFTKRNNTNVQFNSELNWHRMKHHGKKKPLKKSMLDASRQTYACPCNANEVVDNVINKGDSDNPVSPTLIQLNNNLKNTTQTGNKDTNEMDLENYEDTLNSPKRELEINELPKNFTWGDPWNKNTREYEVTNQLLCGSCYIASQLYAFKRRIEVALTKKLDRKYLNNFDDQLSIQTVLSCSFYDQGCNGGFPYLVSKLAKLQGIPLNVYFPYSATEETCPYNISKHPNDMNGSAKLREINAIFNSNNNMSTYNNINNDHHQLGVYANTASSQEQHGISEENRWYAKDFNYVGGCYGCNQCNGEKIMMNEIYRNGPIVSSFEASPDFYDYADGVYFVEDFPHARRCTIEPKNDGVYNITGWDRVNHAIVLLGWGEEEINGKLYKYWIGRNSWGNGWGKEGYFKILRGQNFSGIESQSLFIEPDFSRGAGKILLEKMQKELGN
Set-up: species or system P. falciparum D10 trophozoite lysates; single well
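Note: 30 min substrate incubation versus DMSO and 10 µM JCP410 controls.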

SMILES | % Inhibition @ 10 uM [%]
Cc1c2cnn(CC(=O)NCC3CCCO3)c(=O)c2c(C)n1Cc1ccccc1F (stereo not drawn) | -2.17
CCCc1ccc(-c2c(C)sc(N)c2C#N)cc1 | -0.463
CCN1CCC(NCC2CCCCC2)CC1 | 3.19
O=C(/C=C/c1ccccc1)Nc1cccc(C(=O)O)c1 | 1.63
O=C(c1cccn2c(=O)c3sccc3nc12)N1CCN(Cc2ccc3c(c2)OCO3)CC1 | 0.121
CCCN1C(C(=O)c2ccccc2)=C(OC(=O)c2ccccc2OC)c2ccccc2S1(=O)=O | -3.22
COc1ccc(CN2CCN(Cc3ccc(OC)c(Br)c3)CC2)c(OC)c1 | -15.1
Cc1cc(C(=O)NCCCN2CCN(C3CCCCC3)CC2)n(-c2ccccc2)n1 | 1.55
COc1ccc(CN2CCN(C(=O)COc3ccc(Cl)cc3)CC2)cc1OCc1ccccc1 | -5.26
CC1CCC(C(C)C)C(OCC(O)CN2CC(C)OC(C)C2)C1 (stereo not drawn) | -6.12
O=C(Cn1ncn2nc(-c3cccs3)cc2c1=O)N1CCN(Cc2ccccc2)CC1 | 0.623
CN1CCC(N2CCN(c3ccc(F)cc3)CC2)CC1 | 2.99
CC(C)(CC(=O)Nc1sc2c(c1C(=O)O)CCC2)CC(=O)Nc1sc2c(c1C(=O)O)CCC2 | 25.6
COc1cc(C(=O)N2C3=C(CCCC3)C(=O)NC23CCCCC3)cc(OC)c1OC | -6.85
Cc1ccc(S(=O)(=O)c2cc3c(=O)n4cccc(C)c4nc3n(CCO)c2=N)cc1 | 8.09
COc1ccccc1CNC(=O)c1sc2nc3n(c(=O)c2c1C)CCCCC3 | -6.34
CC12CC3CC(C)(C1)CC(OCCNC(=O)c1noc4c1COc1ccccc1-4)(C3)C2 | 49
O=C(Cc1c(O)nc2ccccc2c1O)NCc1ccccc1 | -1.37
O=C(O)c1ccc2c(c1)C(=O)N(CCO)C2=O | -5.62
O=C1c2ccccc2C(O)N1Cc1ccco1 (stereo not drawn) | 0.494
CCOc1cc(C2c3c(oc4ccccc4c3=O)C(=O)N2c2nccs2)ccc1O (stereo not drawn) | 0.189
COCCNC(=O)c1ccc(CSc2nc3ccncc3n2Cc2ccc(C)cc2)cc1 | 8.62
COc1cc(C)ccc1OCCn1cccc1/C=C1\C(=N)N2N=C(N3CCCC3)SC2=NC1=O | 3.32
Cc1cccc(CN(C)C2CCN(C)CC2)c1 | 4.67
COc1cccc(N(CC(=O)N2CCOCC2)S(=O)(=O)c2ccc(C)cc2)c1 | 10.7

SMILES | % Inhibition @ 10 uM [%]
Cc1ccc(-n2nnc(-c3nsc(NC(=O)c4cccs4)n3)c2C)cc1C | 4.44
Cc1cc(Cl)ccc1OCCCC(=O)Nc1ccc(F)cc1 | -5.82
COc1ccc(CC(=O)Nc2ccn(Cc3ccccc3)n2)cc1OC | -3.34
CC1=C(C(=O)Nc2ccc(Br)cc2)C(c2ccc(Br)cc2)NC(=O)N1C (stereo not drawn) | -5.59
COCCNC(=O)c1cnc2ccc(S(=O)(=O)N3CCc4ccccc4C3)cc2c1O | -4.65
CN(CC(=O)Nc1cc(Cl)c(Cl)cc1Cl)S(=O)(=O)c1ccc(F)cc1 | 7.97
CCC1C(c2ccccc2)NC(c2ccccc2)CC1(O)c1ccc(F)cc1 (stereo not drawn) | 2.92
C=C(CS(=O)(=O)c1ccccc1)c1ccccc1 | 0.317
ClC1=CCC2CN(CCN3CCCCC3)CC2C1 (stereo not drawn) | -6.88
N#Cc1c(SCC(=O)c2ccccc2)nsc1SCC(=O)c1ccccc1 | 12.8
O=Nc1c(O)[nH]c2c(C(=O)O)cccc12 | 1.08
Cc1cccc(-n2c(C)cc(/C=C3/C(=N)N4C(=NC3=O)SN=C4S(C)(=O)=O)c2C)c1C | 5.06
COc1cccc(C2=NOC(C(=O)NCCN3CCOCC3)C2)c1 (stereo not drawn) | 1.62
COc1ccc(C2CC(C(F)(F)F)n3ncc(C(=O)N4CCc5ccccc5C4)c3N2)cc1 (stereo not drawn) | -0.0938
O=C(CC1(O)C(=O)Nc2c(Cl)cc(Cl)cc21)c1ccccc1O (stereo not drawn) | 2.4
COc1cc(NC(=O)COc2ccc(C)cc2C)cc(OC)c1OC | 6.74
COCCNC(=O)c1cc(-c2ccc(O)cc2)on1 | 0.723
Oc1nc(N(Cc2ccccc2)Cc2ccccc2)nc2nccnc12 | -10.8
CCCNC(=O)C1CCCN(c2nnc(C)c3c(C)n(-c4ccc(Cl)cc4)nc23)C1 (stereo not drawn) | 5.2
CCSC1=C(C#N)C(c2cccs2)C(C(=O)Nc2ccccc2)=C(C)N1 (stereo not drawn) | -2.8
COc1ccc(/C=C(/C#N)c2nc(-c3ccc(Br)cc3)cs2)cc1OC | 2.4
O=C(Cn1cc(S(=O)(=O)CCN2C(=O)c3ccccc3C2=O)c2ccccc21)N1CCCCCC1 | -0.264
COc1ccc(CNC(=O)c2noc3c2COc2ccc(C)cc2-3)cc1 | -3.17
CC(=O)NC(C)c1nc2ccccc2n1Cc1ccccc1C (stereo not drawn) | -5
CC(=O)c1cccc(NC(=O)CSc2ncnc3sc(C)c(C)c23)c1 | -4.06

SMILES | % Inhibition @ 10 uM [%]
COc1ccccc1C1CC(c2c(O)cc(C)oc2=O)=NCCS1 (stereo not drawn) | -0.0372
CC(C)c1[nH]nc2c1C(c1ccc3c(c1)OCO3)C(C#N)=C(N)O2 (stereo not drawn) | 0.487
COc1ccc(/C=c2\sc3ncnn3c2=O)cc1 | -3.33
CC(C)c1ccc(/C=C/C(=O)Nc2ccccn2)cc1 | 1.4
CN1CCN(Cc2ccc(F)cc2F)CC1 | 4.81
CCC(=O)Nc1ccc2nc(SCC(=O)Nc3ccccc3OC)sc2c1 | -3.46
CSc1nc(O)c2c(n1)-c1ccccc1CC21CCCCC1 | -0.711
CC1(C)CC(=O)C2=C(C1)N(c1ccccc1)C(=O)CC2c1ccc2c(c1)OCO2 (stereo not drawn) | 3.41
CC(NC(=O)c1csc2c1CCCC2)C1CCCO1 (stereo not drawn) | -0.312
NCCCC12CC3CC(CC(O)(C3)C1)C2 | -2.18
CCOc1cc(C2C(C#N)=C(N)OC3=C2C(=O)CCC3)c(Br)cc1OCc1ccccc1 (stereo not drawn) | -2.24
CCOC(=O)N1CCC(NC(=O)C2=CCN(S(=O)(=O)c3ccc(F)cc3)CC2)CC1 | 1.8
N=C1/C(=C\c2cccn2-c2ccc(Br)cc2)C(=O)N=C2SC=NN12 | 0.208
CC(C)CC(Oc1ccc(-c2ccccc2)cc1)C(=O)NCC#N (stereo not drawn) | -1.41
Cc1ccc(CCNC(=O)CCS(=O)(=O)c2ccc(Br)cc2)cc1 | -2.17
CC(=O)C(O)C[C@H]1[C@@](C)(O)CCC2C(C)(C)CCC[C@@]21C (stereo partly drawn) | 1.13
CCN(CC)C(=O)c1ccc(Cl)c([N+](=O)[O-])c1 | -2.56
Cc1ccc(-n2nc(C)c3c(C)cc(=O)oc32)cc1C | 3.05
c1ccc(CCc2nn3c(-c4ccccc4)nnc3s2)cc1 | 4.96
CCOc1ccc(N(CC(=O)Nc2ccccc2-c2ccccc2)S(C)(=O)=O)cc1 | 16.4
O=C(O)c1ccc(NC(=O)c2cc(S(=O)(=O)N3CCCC3)ccc2Cl)cc1 | -11
O=C1CC(c2ccccc2)CC(=O)C1=CNCc1ccccc1 (stereo not drawn) | -2.8
CCCS(=O)(=O)c1ncc(Cl)c(C(=O)N(Cc2ccccc2)c2ccccn2)n1 | 5.29
COc1cc2c(cc1OC)C(c1ccccc1C)NC(=O)C2 (stereo not drawn) | 0.345
CC(=O)C1=C(C)NC(SCC(N)=O)=C(C#N)C1c1ccc(F)cc1 (stereo not drawn) | -0.239

SMILES | % Inhibition @ 10 uM [%]
CN(c1ccccc1)S(=O)(=O)c1ccc(F)cc1 | 2.41
CCCOc1ccc(C(=O)O/N=C(\N)c2ccc(C(F)(F)F)cc2)cc1 | -0.812
COc1ccc2c(c1)CCc1c(C(=O)NCc3cccnc3)noc1-2 | -10.7
COc1ccc(C2C(C(=O)Nc3ccccc3)=C(C)N=c3s/c(=C/c4cn(C)nc4C)c(=O)n32)cc1 (stereo not drawn) | 5.87
O=C(NCc1cccs1)c1ccc(CSc2nc3ccncc3[nH]2)cc1 | 3.4
CC1Cc2cc(C(=O)C3=C(O)C(=O)N(Cc4cccnc4)C3c3cccs3)ccc2O1 (stereo not drawn) | -6.3
COc1ccc(/C=C(\C#N)C(=O)NCC2CCCO2)cc1 (stereo not drawn) | 8.01
COc1ccc(C2c3c(oc4ccc(F)cc4c3=O)C(=O)N2c2nc(C)c(C(C)=O)s2)cc1OC (stereo not drawn) | 2.1
Brc1ccccc1NCc1ccncc1 | 1.57
O=C(CCCn1c2ccccc2c2cnnc(O)c21)NCc1cccnc1 | 3
COc1ccc(NCc2ccccc2C(F)(F)F)cc1 | -0.0908
CC(C)CC(C(=O)NCC#N)c1cccc(-c2ccc(S(=O)(=O)N(C)C3CCN(C)C3)cc2)c1 (stereo not drawn) | -1.41
Cc1ccc(C23CC4CC(CC(C(=O)Nc5ccccn5)(C4)C2)C3)cc1 | 4.41
Cc1ccc(NC(=O)c2ccc(C(C)(C)C)cc2)cc1 | -1.69
COc1ccc(NC(=O)CN(c2ccccc2F)S(=O)(=O)c2ccccc2)c(OC)c1 | -5.27
CCOC(=O)C1=CN(C)C=C(C(=O)OCC)C1c1ccc(C(C)C)cc1 | -1.48
CCOc1ccc(/C=C/C(=O)c2ccc(Cl)cc2)cc1 | 2.62
COc1ccc(CC(=O)Nc2ccc(C(N)=O)cc2)cc1 | 3.68
CCS(=O)(=O)n1nc(-c2ccccc2)nc1N | 2.46
CC1=C(C(=O)Nc2cccnc2)C(c2ccc(Cl)cc2)n2ncnc2N1 (stereo not drawn) | 2.76
COC(=O)C1=C(C)OC(N)=C(C#N)C1c1cc(CN2CCOCC2)c(C)s1 (stereo not drawn) | -3.87
COc1ccc(C2=NOC(C(=O)N3CCN(C)CC3)C2)cc1 (stereo not drawn) | 3.2
O=c1cc(N2CCOCC2)c2ccccc2s1 | 0.392
COc1ccccc1NC(=O)c1ccc(C)c(C)c1 | 2.64
